# Experimental data as given in PMC9508122.
# Amino acid sequences for entries named in this document (tags omitted).
# UniProt P40763: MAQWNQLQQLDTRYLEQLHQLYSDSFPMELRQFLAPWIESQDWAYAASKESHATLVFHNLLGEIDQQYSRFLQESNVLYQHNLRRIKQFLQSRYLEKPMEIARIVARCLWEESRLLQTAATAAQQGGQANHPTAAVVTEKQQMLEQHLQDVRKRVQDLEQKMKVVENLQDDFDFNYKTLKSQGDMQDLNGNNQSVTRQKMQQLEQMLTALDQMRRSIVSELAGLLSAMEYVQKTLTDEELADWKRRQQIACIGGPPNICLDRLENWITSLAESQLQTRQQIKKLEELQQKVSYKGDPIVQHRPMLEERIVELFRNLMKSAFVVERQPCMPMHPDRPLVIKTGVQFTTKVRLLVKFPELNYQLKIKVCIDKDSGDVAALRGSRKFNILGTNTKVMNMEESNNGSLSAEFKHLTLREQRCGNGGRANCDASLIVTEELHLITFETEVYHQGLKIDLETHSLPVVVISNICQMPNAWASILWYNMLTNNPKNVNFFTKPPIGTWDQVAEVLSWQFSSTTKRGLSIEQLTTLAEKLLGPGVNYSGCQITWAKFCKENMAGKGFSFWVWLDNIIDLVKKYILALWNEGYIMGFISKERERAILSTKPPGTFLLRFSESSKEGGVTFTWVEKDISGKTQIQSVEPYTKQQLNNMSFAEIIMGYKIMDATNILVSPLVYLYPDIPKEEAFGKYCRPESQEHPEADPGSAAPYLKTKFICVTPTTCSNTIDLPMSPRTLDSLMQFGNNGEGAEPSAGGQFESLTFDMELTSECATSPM
# UniProt Q99873: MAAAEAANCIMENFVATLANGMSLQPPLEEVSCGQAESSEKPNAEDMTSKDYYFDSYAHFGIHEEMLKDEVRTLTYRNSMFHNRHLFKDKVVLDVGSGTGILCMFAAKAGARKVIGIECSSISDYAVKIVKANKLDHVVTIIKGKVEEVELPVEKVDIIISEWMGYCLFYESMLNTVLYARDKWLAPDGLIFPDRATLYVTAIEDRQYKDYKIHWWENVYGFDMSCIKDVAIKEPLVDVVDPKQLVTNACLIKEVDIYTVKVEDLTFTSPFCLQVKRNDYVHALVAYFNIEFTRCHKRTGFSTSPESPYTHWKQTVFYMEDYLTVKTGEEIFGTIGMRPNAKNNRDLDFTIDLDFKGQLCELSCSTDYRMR
# These are yes or no findings as the source states them, for the method shown. Binding seen in cells or lysates may run through a third protein. Some binding calls cover weakened binding; strength is not graded here. For some assays here: Tags and fused reporters may be left off the sequences shown.
# Key:
# [1] = target: T1, TIPE1-Flag, full-length TIPE1 (FL) (UniProt Q8WVP5); assay: proximity ligation; Duolink in situ PLA in MNNG/HOS Cl #5 cells overexpressing TIPE1-Flag and PRMT1-HA
# T1 sequence: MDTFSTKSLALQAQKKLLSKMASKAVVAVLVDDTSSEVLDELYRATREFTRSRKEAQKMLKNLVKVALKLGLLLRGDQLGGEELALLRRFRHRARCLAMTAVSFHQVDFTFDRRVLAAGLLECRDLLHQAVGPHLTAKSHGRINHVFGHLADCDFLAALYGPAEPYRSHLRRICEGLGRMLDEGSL
# [2] = target: T1, TIPE1-Flag, full-length TIPE1 (FL); assay: co-IP; HEK-293T cells transfected with Flag-tagged TIPE1 (or its truncations) and HA-tagged PRMT1 (full length or truncations), harvested 24 h after transfection; lysates with anti-HA or anti-Flag antibody, protein G agarose; western blot
# [3] = target: T2, TIPE1 M2 truncation (101-186aa) (UniProt Q8WVP5); assay: as above
# T2 sequence: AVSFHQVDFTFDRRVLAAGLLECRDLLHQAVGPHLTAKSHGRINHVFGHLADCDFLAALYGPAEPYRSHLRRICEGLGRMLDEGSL
# [4] = target: T3, TIPE1 M1 truncation (1-100aa) (UniProt Q8WVP5); assay: as above
# T3 sequence: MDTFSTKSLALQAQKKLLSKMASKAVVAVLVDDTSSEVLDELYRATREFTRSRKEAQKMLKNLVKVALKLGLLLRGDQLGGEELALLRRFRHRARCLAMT
# STAT3-His = STAT3-His (UniProt P40763); assay: co-IP; HEK293T cells transfected with PRMT1-HA and STAT3-His together with increasing amount of TIPE1-Flag
substance,measurement,setting,value
"PRMT1-HA, full-length PRMT1 (from UniProt Q99873 1-371) (enzyme)",binding,[1],binds
same,binding,[2],binds
same,binding,[3],no binding
same,binding,[4],binds
same,binding,STAT3-His,binds
